Recombinant human monoclonal antibodies (heavy:light variable regions). ELISA EC50 on the named antigen, from 10 µg/ml down; IC50 / IC90 against spike pseudovirus on 293T-ACE2 cells, 48 h; lower = stronger. Calls: IC50 above 1,000 ng/ml = non-neutralizing; EC50 above 1,000 ng/ml = non-binder. The source prints 1000 for neutralization that was not reached; it is given as >1000 ng/ml. Only binders of the Wuhan-Hu-1 domain have neutralization values.
B1: B2042 (protein)
chain 1: EVQLVESGGGLVQPGGSLRLSCAASGFTFSDYDMHWVRQSTEKRLEWVSTIGTSGDTYYPDSVKGRFTISRENAKNSLYLQMNSLSAGDTAVYYCARGGNHDSWSAYYSRLPTWYFDLWGHGTLVTVSS
chain 2: DIQLTQSPSSLSASVGDRVTITCRASQTIRNNLIWYQQKPGKAPKLLIYDASILQSGVPSRFSGSGSGTDFTLTISSLQPEDFATYYCQQSYTMPPITFGQGTRLEIK
B2: B2043 (protein)
chain 1: QVQLVQSGAEVKKPGSSVKVSCKASGGTLSSTAISWVRQAPGQGPEWMGRIIPIFGTTDYAPNFQGRVSITADESTTTVYMELSSLTFQDSALYYCARDHEVAPLYGMDVWGQGTTVTVSS
chain 2: DIQMTQSPSSLSASVGDRVTITCRASQSISRFLNWYQQKPGKAPELLIYGTSTLQDGVPPRFSGSGSGTDFTLTISSLQPEDFATYYCQQSYSIPPITFGQGTRLDIK
B3: B2044 (protein)
chain 1: QLVQSGPEVKKPGTSVKVSCRSSGFTFFSISAVQWVRQARGQRLEWIGWIVIGSGNTDYAQNFQGRVSLTGDLSTSTAYMELSSLRSDDTAVYYCAAPDCSRTTCLDGFDIWGQGTMVTVSS
chain 2: EIVLTQSPGTLSLSPGERATLSCRASQSVSRSYLAWYKQKPGQAPRLLIYAASSRATGIPDRFSGSGSGTDFTLTIRRLEPEDFAVYYCQQYGSSPWTFGQGTKVEIK
B4: B2046 (protein)
chain 1: QVQLVQSGAEVKKPGSSVKVSCKASGGAFSIYAISWVRQAPGQGLEWVGEIIPMSGTPKSAPKFQGRVTITADESTTTAYMELSSLRSEDTAFYYCARHFRDCRETSCLYYFDSWGQGTLVTVSS
chain 2: DIQLTQSPSSLSASVGDRVTITCRATHNIVNYLNWYQQKVGNAPKLLIYAASTLQSGVPSRFSGSGSGTEFTLTISSLQPEDFATYYCQQSHSAPRTFGQGTKVEIK
B5: B2047 (protein)
chain 1: QVQLVQSGTEVKKPGSSVKVSCKTSGGIFSSYGSYGISWVRQAPGQGLEWMGGIIPIFGSTTFAQQFQGRVTITADESTTTVYMELSSLRSDDTAFYYCASGPSTYHDFWSGYSFDYWGQGTLVTVSS
chain 2: EIVLTQSPGTLSLSPGERATLSCRASQSVSSTHLAWYQQRPGQAPRLLIHGASTRATGISERFSGSGSGTDFTLTISRLEPEDFAVYYCQQYGNSPFTFGPGTKVDIK
B6: B2048 (protein)
chain 1: QVQLVQSGAEVRKPGASVKVSCKTYGYTFTSYGFSWVRQAPGQGLEWMGWISVYNGNTIYAQKFQGRVTMTTDTSKSTSYMELKSLRSDDTAIYYCTRVLGIYFGADYWGQGTLVTVSS
chain 2: NFMLTQPHSVSESPGKTVTVSCTRSSGSIASNYVLWYQQRPGSAPTTVIFEDDQRPSGVPGRFSGSIDSSSNSASLTISGLKTEDEADYYCQSYDGTNRSWVFGGGTKLTVL
B7: B2049 (protein)
chain 1: QVQLVQSRPEAKKPGASVRVSCQASGYTFTTYGIHWVRQAPGQGLEWLGRVSSSNGNPIYAPRFRGRLTMTTDASTSTASMELRSLRSDDTAVYYCARDPTVVAPRDFFDYWGQGTLVTVSS
chain 2: SYELTQPPSVSVAPGQTARITCGGDNIGSKNVHWYQQKPGQAPVLVVFEDSDRPSRIPDRFSGSNSGNTATLTISRVEAGDEADYYCQVWDSSSDPYVFGSGTRVTVL
B8: B2011 (protein)
chain 1: QLQLQESGPRLVKPSETLSLTCTVSGGPTISSSNYWGWIRQPPGKGLEWIGSVYYSGDTSYNPALQSRVTISVDTSKNQFSMKLTSVTAADTAVYYCAKLFCGGHCPLEYWGQGTLVTVSS
chain 2: DIQMTQSPSTLSASVGDRVTITCRASQSISTWLAWYQQKPGRAPKLLIYDASNLESGVPSRFSGSGSGTEFTLTINSLQADDFATYHCHQYSSSSQTFGQGTKLEIK
B9: B2050 (protein)
chain 1: QVQLQESGPGLVKPSETLSLTCTVSGGSISTYYWSWLRQPPGKGLEWIGYIFNSGGTNYHPSLRSRVTMSVDTSNNQFSLTLRSVTAADTAVYYCARDLGYDTSGPDAFQIWGQGTMVTVSS
chain 2: EIVLTQSPATLSLSPGERATLSCRASQSVYTYLAWYQHKPGQAPRLLIYDASTRATGIPARFSGSGSGTDFTLTISSLEPADFAVYYCQQRSNWPGTFGQGTKVEIK
B10: B2051 (protein)
chain 1: EVQLVESGGGLVQPGRSLRLSCAASGFTFDDYTMHWVRQAPGKGLEWVSGITSNGGIIGFADSVKGRFIISRDNAKNSLYLQMNSLRAEDTAFYYCAKDMAGVVLLGVEENYGMDVWGQGTTVTVSS
chain 2: SYELTQPPSVSGAPGKTARITCGGNNIGSKSVRWYQQKPGQAPVLVIYYDSDRPSGIPERFSGSNSGNTATLTIGRVEAGDEADYYCQVWDSSSDHVVFGGGTKLTVL
B11: B2127 (protein)
chain 1: EVQLVESGGGLVRPGGSLRLSCVASGFSFSSYDMHWVRQSAEKGLEWVSTIGTSGDTYYADSVKGRFTISRQNDKNSLYLQMNGLTAGDTAVYYCTRGSPAVTTVFDYWGQGTLVTVSS
chain 2: DIQMTQSPVSLSASIGDRVTITCRASQSVSRYLNWYQVKPGKAPKLLIYGASNLQSGVSSRFSGSGSGTDFTLTISTLQPEDFATYYCQQSYVNPGVTFGPGTKLDIK
B12: B2128 (protein)
chain 1: EVQLVESGGGLAKPGGSLRLSCAASGFTFRNAWMSWVRQAPGKGLEWVGRMKTKTHGGTTDYAAPVKGRFTISRDDSQNTLYLQINSLKTEDTAVYFCTATLKSSWVQEWSRDHYFGMDLWGRGTTVTVSS
chain 2: DIVMTQSPLSLPVTPGEPASISCRSSQSLLASNGYNYLDWYLQKPGQSPQLLIYFGFNRASGVPGRFSGSGSGTDFTLKISRVEAEDVGVYYCMQALQTPWTFGQGTQVEIK
B13: B2129 (protein)
chain 1: EVQLVESGGGLVQPGGSLRLSCAASGFTFSSDDMHWVRQVKGEGLEWVSGIGTSGDTYYRGAVKGRFTISREDAKNSVYLQMNSLRAGDTAVYYCARGGWDGRNYYFDYWGQGVLVTVSS
chain 2: DIQLTQSPSSLSASVGDRVTITCRASQIINKFLNWYQQRPGKAPKLLIYGASTLHSGVPSRFSGSGSGTDFTLTISSLQPEDFATYYCQQSYSSPPWTFGPGTKVEIK
B14: B2130 (protein)
chain 1: QVQLVQSGAEVKKPGASVKVSCKASGYNFPAYYIHWVRQAPGQGLEWMGWINPNSGDTNSAQRFQGRVSLTRNTSITTAYMELTGLRSYDTAVYFCVRDRRTAPTPTRAWFDVWGQGTLVTVSS
chain 2: QAVVTQEPSLTVSPGGTVTLTCGSSTGAVTSGHYPYWIQQKPGQAPRTLIYDTGNKHSWTPARFSGSLLGGKAALTLSGAQPEDEAEYYCLLSYSGVLYVFGTGTKVTVL

Tests used:
[1] = biological target: SARS-CoV-2 Wuhan-Hu-1 spike pseudovirus; assay: pseudovirus neutralization IC50; higher = weaker neutralization
Description: (§1)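 Single-round luciferase reporter pseudovirus mixed with antibody dilutions and put on 293T-ACE2 cells for 48 h; signal relative to no-antibody wells, four-parameter fit.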

[2] = biological target: SARS-CoV-2 Wuhan-Hu-1 spike pseudovirus; assay: pseudovirus neutralization IC90; higher = weaker neutralization
Description: as §1

[3] = biological target: SARS-CoV-2 Delta (B.1.617.2) spike RBD; assay: ELISA binding EC50; higher = weaker binding; ELISA of recombinant human antibody on coated antigen, from 10 µg/ml in fourfold dilutions; four-parameter fit.
[4] = biological target: SARS-CoV-2 Omicron BA.1 spike protein; assay: as above
[5] = biological target: SARS-CoV-2 Wuhan-Hu-1 spike receptor-binding domain; assay: as above

Binder	pseudovirus neutralization IC50 [1]	pseudovirus neutralization IC90 [2]	ELISA binding EC50 [3]	ELISA binding EC50 [4]	ELISA binding EC50 [5]
B1	> 1 µg/mL	> 1 µg/mL	0.0165 µg/mL	0.0357 µg/mL	0.00257 µg/mL
B2	0.0891 µg/mL	> 1 µg/mL	0.00468 µg/mL	0.00243 µg/mL	0.00315 µg/mL
B3	0.00486 µg/mL	0.0193 µg/mL	0.00365 µg/mL	0.00157 µg/mL	0.00251 µg/mL
B4	0.0206 µg/mL	0.107 µg/mL	0.00388 µg/mL	> 1 µg/mL	0.00435 µg/mL
B5	> 1 µg/mL	> 1 µg/mL	0.00863 µg/mL	0.00407 µg/mL	0.00309 µg/mL
B6	0.0221 µg/mL	> 1 µg/mL	0.0182 µg/mL	0.0466 µg/mL	0.00515 µg/mL
B7	> 1 µg/mL	> 1 µg/mL	0.0102 µg/mL	0.00953 µg/mL	0.00171 µg/mL
B8	> 1 µg/mL	> 1 µg/mL	0.0277 µg/mL	0.00965 µg/mL	0.00313 µg/mL
B9	> 1 µg/mL	> 1 µg/mL	0.00714 µg/mL	0.0191 µg/mL	0.00265 µg/mL
B10	0.0212 µg/mL	0.205 µg/mL	0.011 µg/mL	0.00616 µg/mL	0.00105 µg/mL
B11	> 1 µg/mL	> 1 µg/mL	0.00625 µg/mL	0.0196 µg/mL	0.00205 µg/mL
B12	0.00609 µg/mL	0.029 µg/mL	0.00365 µg/mL	> 1 µg/mL	0.0028 µg/mL
B13	> 1 µg/mL	> 1 µg/mL	0.0226 µg/mL	0.06 µg/mL	0.00386 µg/mL
B14	0.819 µg/mL	> 1 µg/mL	> 1 µg/mL	> 1 µg/mL	0.00393 µg/mL
